US20190112393 (published 2019)

T1: mouse FcγRIII (mouse, UniProt P08508)
T1 chain: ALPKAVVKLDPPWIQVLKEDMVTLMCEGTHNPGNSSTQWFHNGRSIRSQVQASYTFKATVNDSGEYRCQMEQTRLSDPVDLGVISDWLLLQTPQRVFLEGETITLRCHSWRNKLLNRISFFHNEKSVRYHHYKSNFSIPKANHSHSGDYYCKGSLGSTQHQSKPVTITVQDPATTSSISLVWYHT

T2: mouse FcγRIIb (mouse, UniProt P08101)
T2 chain: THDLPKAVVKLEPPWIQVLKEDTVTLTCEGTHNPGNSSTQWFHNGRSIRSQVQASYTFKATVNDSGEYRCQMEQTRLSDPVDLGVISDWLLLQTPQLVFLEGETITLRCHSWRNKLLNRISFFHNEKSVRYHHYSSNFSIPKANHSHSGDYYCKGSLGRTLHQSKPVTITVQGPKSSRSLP

T3: mouse FcγRI (mouse, UniProt P26151)
T3 chain: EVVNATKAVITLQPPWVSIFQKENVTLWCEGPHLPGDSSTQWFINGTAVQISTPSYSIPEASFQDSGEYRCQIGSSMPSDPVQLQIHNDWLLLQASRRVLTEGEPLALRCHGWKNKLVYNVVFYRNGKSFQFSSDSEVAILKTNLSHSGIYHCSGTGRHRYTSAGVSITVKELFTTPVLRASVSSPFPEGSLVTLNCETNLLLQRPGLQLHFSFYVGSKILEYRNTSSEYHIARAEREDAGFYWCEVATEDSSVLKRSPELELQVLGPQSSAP

T4: mouse FcγRIV (mouse, UniProt A0A0B4J1G0)
T4 chain: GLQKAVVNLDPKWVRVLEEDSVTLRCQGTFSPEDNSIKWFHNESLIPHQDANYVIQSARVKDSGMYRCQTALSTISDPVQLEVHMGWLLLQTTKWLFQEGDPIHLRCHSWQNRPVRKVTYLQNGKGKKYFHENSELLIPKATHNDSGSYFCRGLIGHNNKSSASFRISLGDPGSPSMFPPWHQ

T5: human FcγRIa (human, UniProt P12314)
T5 chain: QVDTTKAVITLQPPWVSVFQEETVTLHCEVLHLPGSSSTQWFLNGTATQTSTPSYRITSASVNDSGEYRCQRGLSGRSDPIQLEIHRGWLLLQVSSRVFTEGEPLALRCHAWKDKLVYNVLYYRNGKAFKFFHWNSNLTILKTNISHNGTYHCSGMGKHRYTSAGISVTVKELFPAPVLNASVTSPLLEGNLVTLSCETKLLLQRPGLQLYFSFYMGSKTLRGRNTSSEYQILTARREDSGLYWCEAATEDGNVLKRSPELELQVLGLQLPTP


Columns and labels:
Assay in all cases: SPR
[1] = biological target: T1, mouse FcγRIII
[2] = biological target: T2, mouse FcγRIIb
[3] = biological target: T3, mouse FcγRI
[4] = biological target: T4, mouse FcγRIV
[5] = biological target: T5, human FcγRIa

Row | binding result [1] | binding result [2] | binding result [3] | binding result [4] | Kd [5] [nM] | Binder
1 | no binding | no binding | no binding | no binding |  | VH3/L(WT)-IgG1-F760 (antibody) chain 1: QVQLQESGPGLVKPSETLSLTCAVSGHSISHDHAWSWVRQPPGEGLEWIGFISYSGITNYNPSLQGRVTISRDNSKNTLYLQMNSLRAEDTAVYYCARSLARTTAMDYWGEGTLVTVSS[sequence of human IgG1 constant region with L235R S239K (EU numbers) omitted] chain 2: DIQMTQSPSSLSASVGDRVTITCRASQDISSYLNWYQQKPGKAPKLLIYYTSRLHSGVPSRFSGSGSGTDFTFTISSLQPEDIATYYCQQGNTLPYTFGQGTKVEIKRTVAAPSVFIFPPSDEQLKSGTASVVCLLNNFYPREAKVQWKVDNALQSGNSQESVTEQDSKDSTYSLSSTLTLSKADYEKHKVYACEVTHQGLSSPVTKSFNRGEC
2 |  |  |  |  | 0.66 | IL6R-G4d/IL6R-L (antibody) chain 1: DIQMTQSPSSLSASVGDRVTITCRASQDISSYLNWYQQKPGKAPKLLIYYTSRLHSGVPSRFSGSGSGTDFTFTISSLQPEDIATYYCQQGNTLPYTFGQGTKVEIKASTKGPSVFPLAPCSRSTSESTAALGCLVKDYFPEPVTVSWNSGALTSGVHTFPAVLQSSGLYSLSSVVTVPSSSLGTKTYTCNVDHKPSNTKVDKRV[sequence of human IgG4 Fc with S228P (EU numbers) omitted] chain 2: DIQMTQSPSSLSASVGDRVTITCRASQDISSYLNWYQQKPGKAPKLLIYYTSRLHSGVPSRFSGSGSGTDFTFTISSLQPEDIATYYCQQGNTLPYTFGQGTKVEIKRTVAAPSVFIFPPSDEQLKSGTASVVCLLNNFYPREAKVQWKVDNALQSGNSQESVTEQDSKDSTYSLSSTLTLSKADYEKHKVYACEVTHQGLSSPVTKSFNRGEC
